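Tested at 5 concentrations; 48 h exposure; 96-well plates; endpoints linearly interpolated, else capped at highest concentration. The concentration for 50% growth inhibition is given as GI50. TGI is the concentration that stops growth completely.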 Square brackets hold non-standard residues; d marks the D form. Peptide text beside a SMILES is read from it. * marks the point of attachment. ξ: configuration not given here. NMeF = CN[C@@H](Cc1ccccc1)C(=O)O; ξNMeV = CNC(C(=O)O)C(C)C; Boc = CC(C)(C)OC(=O)*; OBn = c1ccc(CO*)cc1
System: NCI-H322M lung
Assay: growth of human tumour cells (NCI), 48 h

`CCn1c(=O)ccc2ccc(N(CCO)CCO)nc21` and `Cc1nc2ccccc2c(=O)n1CC(=O)O` cannot be ordered by TGI: greater than 100 µM for the first, greater than 100 µM for the second.

Going from `C/C(=C\CCc1ccoc1)CC/C=C(\C)CCCN1CCC(CO)CC1` to `Cc1cc(C(=O)N2CCN(Cc3ccccc3)CC2)c(C)o1`, the TGI rises from 19.9 µM to greater than 100 µM.

Going from `CC(C)=CC(=O)OC1C2C(C)C(=O)OC2C(O)C(C)C2C=CC(=O)C21C` (configuration not stated) to `CCOC(=O)C1=C(C)NC(=O)NC1c1coc2cc(C)cc(C)c2c1=O` (configuration not stated), the TGI rises from 10.8 µM to greater than 100 µM.

`NC(=O)C(NC=O)c1ccccc1` (configuration not stated) and `Cn1cc(C[C@@H](N)C(=O)O)c2ccccc21` cannot be ordered by TGI: greater than 100 µM for the first, greater than 100 µM for the second.

Compared with `O=C(c1cccs1)c1c(C(F)(F)F)n([O-])c2ccc(F)cc2[n+]1=O`, `CN1CCN(Cc2ccc(NC(=O)c3ccc(C#N)c(C#Cc4cnc(N)c5ncccc45)c3)cc2C(F)(F)F)CC1` is 4.2-fold higher in TGI: 4.06 µM for the first, 17.2 µM for the second.

`CC1=C[C@]2(CC(C)C3C(CC4(C)C5CCC6C(C)(C)C(=O)CC[C@@]67C[C@@]57CC[C@]34C)O2)OC1=O` (some centres not stated) and `CC(=O)O[C@H]1CC[C@@]2(C)C(=CC[C@@H]3[C@@H]2CC[C@]2(C)C(=N/O)/C(=C/c4ccc([N+](=O)[O-])cc4)C[C@@H]32)C1` cannot be ordered by TGI: greater than 100 µM for the first, greater than 100 µM for the second.

First: Oc1cc(O)c2c(=S)cc(-c3ccc(Cl)cc3)oc2c1
Second: COC(=O)NN=C(c1ccc(Cl)cc1)c1ccc(Cl)cc1
The TGI of the first is lower: 13.8 µM for the first, greater than 100 µM for the second.

`Cc1cc(NS(=O)(=O)c2ccc(NC(=O)c3cccc4c(Nc5ccc(S(=O)(=O)Nc6cc(C)on6)cc5)c5ccccc5nc34)cc2)no1` and `O=c1c2ccccc2nc(-c2ccccc2)n1NC(=S)Nc1ccc(Cl)cc1[N+](=O)[O-]` cannot be ordered by TGI: greater than 100 µM for the first, greater than 100 µM for the second.

First: Cc1cccc2c(N)c3cccc(C(=O)NCCN(C)C)c3nc12
Second: CN(C)C=Nc1cccc2cnccc12
The TGI of the first is lower: 0.516 µM for the first, greater than 100 µM for the second.

First: CC(C)c1cccc(C(C)C)c1NC(=O)C(=O)C(C(=O)c1ccc2ccccc2c1)C1OC(=O)c2ccccc21 (configuration not stated)
Second: CSc1ccc2c(cc1=O)C(NC(=O)c1ccc(OC(C)=O)cc1)CCc1cc(O)c(O)c(O)c1-2 (configuration not stated)
The TGI of the first is higher: greater than 100 µM for the first, 50 µM for the second.

`O=c1[nH]c(SCc2c(Cl)c(Cl)c(Cl)c(Cl)c2Cl)nc(=S)[nH]1` and `Cc1ccc2[nH]c3[nH]c(=O)[nH]c(=O)c3c2c1` cannot be ordered by TGI: greater than 100 µM for the first, greater than 100 µM for the second.

`COc1cccc(C2C3=C(COC3=O)N(CCO)c3cc4c(cc32)OCCO4)c1` (configuration not stated) and `COc1cc([C@@H]2c3cc4c(cc3[C@@H](O[C@@H]3O[C@@H]5CO[C@@H](c6cccs6)O[C@H]5[C@H](O)[C@H]3O)[C@H]3COC(=O)[C@H]23)OCO4)cc(OC)c1O` cannot be ordered by TGI: greater than 50 µM for the first, greater than 100 µM for the second.

`COc1ccc(C2=NN(c3ccccc3)C(c3cc4cc(Br)ccc4nc3Cl)C2)cc1` (configuration not stated) and `CCOC(=O)c1cc(C(=O)c2cc(OC)cc(OC)c2)n2ncc3ccccc3c12` cannot be ordered by TGI: greater than 25 µM for the first, greater than 100 µM for the second.

`COc1c(CNC(=O)CCl)cc2[nH]c(C)cc2c1CNC(=O)CCl` and `CCOC(=O)c1c(C)n2c(=O)cc(C)c3c(OC(C)=O)c(OC(C)=O)cc1c32` cannot be ordered by TGI: greater than 100 µM for the first, greater than 79.9 µM for the second.

Compared with `O=C1CC(=O)c2c(Cl)sc(Cl)c21`, `CCOC(=O)c1cc2c([nH]1)C(=O)CC1=C2CCN1Cc1ccccc1` is lower in TGI: greater than 100 µM for the first, 37.5 µM for the second.

`CC(=O)OC1C(CCl)OC(N=[N+]=[N-])C(OC(C)=O)C1OC(C)=O` (configuration not stated) and `COC(=O)[C@H](CC(C)C)NC(=O)NC(=O)NC(=O)CI` cannot be ordered by TGI: greater than 100 µM for the first, greater than 100 µM for the second.

Compared with `CC1=C([Se]CC(OC(=O)[C@@H](CO)NC(=O)OC(C)(C)C)C(=O)NC(C)(C)C)C(=O)c2ccccc2C1=O` (some centres not stated), `CC(C)C(C(=O)N1CCC[C@@H]1C(=O)OCc1ccccc1)N(C)C(=O)C(C(C)C)N(C)C(=O)[C@H](Cc1ccccc1)N(C)C(=O)[C@H](NC(=O)OC(C)(C)C)C(C)C` (some centres not stated) (Boc-[dV][NMeF][ξNMeV][ξNMeV][dP]-OBn) is higher in TGI: 3.75 µM for the first, greater than 100 µM for the second.

`CO/N=C1/c2sccc2[C@H](NC(=O)C(F)(F)F)[C@@H]1O` and `COC(=O)C1CCC(Nc2cccc(C(F)(F)F)c2)=N1` (configuration not stated) cannot be ordered by TGI: greater than 100 µM for the first, greater than 100 µM for the second.

`O=C(/C=C(\Nc1ccccc1O)c1ccccc1)C(=O)NC12CC3CC(CC(C3)C1)C2` and `N#CC1CCN2N=C(c3ccccc3)SC12c1ccccc1` (configuration not stated) cannot be ordered by TGI: greater than 10 µM for the first, greater than 100 µM for the second.

`COc1cc2c3c(n(CCN(C)C)c(=O)c2cc1OC)-c1cc2c(cc1C3=O)OCO2` and `CN(C)CCCNc1nnc(NCCCN(C)C)c2c(=O)c3sccc3[nH]c12` cannot be ordered by TGI: 69.4 µM for the first, greater than 56.1 µM for the second.

`Clc1ccc(OC2CCO2)cc1Cl` (configuration not stated) and `CC(=O)Nc1cc2c(cc1O)CC[C@@H]1[C@@H]2CC[C@]2(C)[C@@H](O)CC[C@@H]12` cannot be ordered by TGI: greater than 100 µM for the first, greater than 100 µM for the second.

`O=C(NNC(=O)c1ccncc1)c1ccncc1` and `N#Cc1c(NC(=O)CN2CCOCC2)sc2c1CCCC2` cannot be ordered by TGI: greater than 100 µM for the first, greater than 25 µM for the second.

First: C/C(=C\CCc1ccoc1)CC/C=C(\C)CCCN1CCC(CO)CC1
Second: COc1cccc(C2C3=C(COC3=O)N(CCO)c3cc4c(cc32)OCCO4)c1 (configuration not stated)
The GI50 of the first is 12-fold higher: 6.01 µM for the first, 0.482 µM for the second.

First: O=C(c1cccs1)c1c(C(F)(F)F)n([O-])c2ccc(F)cc2[n+]1=O
Second: CN1CCN(Cc2ccc(NC(=O)c3ccc(C#N)c(C#Cc4cnc(N)c5ncccc45)c3)cc2C(F)(F)F)CC1
The GI50 of the first is 2.8-fold lower: 1.88 µM for the first, 5.25 µM for the second.

`Oc1cc(O)c2c(=S)cc(-c3ccc(Cl)cc3)oc2c1` and `CCOC(=O)c1cc(C(=O)c2cc(OC)cc(OC)c2)n2ncc3ccccc3c12` are within 1.5-fold of each other in GI50: 2.28 µM for the first, 2.24 µM for the second.

First: COc1c(CNC(=O)CCl)cc2[nH]c(C)cc2c1CNC(=O)CCl
Second: CCOC(=O)c1c(C)n2c(=O)cc(C)c3c(OC(C)=O)c(OC(C)=O)cc1c32
The GI50 of the first is 3-fold higher: 23.8 µM for the first, 8.06 µM for the second.

Going from `CC1=C([Se]CC(OC(=O)[C@@H](CO)NC(=O)OC(C)(C)C)C(=O)NC(C)(C)C)C(=O)c2ccccc2C1=O` (some centres not stated) to `COC(=O)[C@H](CC(C)C)NC(=O)NC(=O)NC(=O)CI`, the GI50 rises from 0.447 µM to greater than 100 µM.

Compared with `COc1cc2c3c(n(CCN(C)C)c(=O)c2cc1OC)-c1cc2c(cc1C3=O)OCO2`, `COc1cc([C@@H]2c3cc4c(cc3[C@@H](O[C@@H]3O[C@@H]5CO[C@@H](c6cccs6)O[C@H]5[C@H](O)[C@H]3O)[C@H]3COC(=O)[C@H]23)OCO4)cc(OC)c1O` is 2.9-fold lower in GI50: 12.3 µM for the first, 4.21 µM for the second.

For `N#Cc1c(NC(=O)CN2CCOCC2)sc2c1CCCC2`, the GI50 was greater than 25 µM.

Source: PubChem BioAssay (NCI)
